# “And” between values parts separate entries of the source, which are not always exact repeats. Identical values can stand only once. Inconclusive means that the source gave no clear call. Such entries were picked first, then a sample of the others. For part of these data: A potency beside an inconclusive call is a rough fit, not a confirmed value. The source made the active and inactive calls. Unless noted, the call rests on the fitted dose curve; in most records, active means well fitted curve in the direction sought with a large enough effect in the repeat runs; inconclusive means weak or mixed curves; inactive means no such curve, though single readings can be large; an effect the other way counts as inactive or inconclusive.
# What was measured:
# [1] = qHTS assay to identify small molecule HDAC inhibitors (AID 1259364); further: nearly all actives have a fitted effect of over 45% in size; on activity change, negative = inhibition: top concentration of the series differs between compounds; on the % scale 0 is the no-effect control and ±100 the full control effect
# Procedure, shortened: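 Wild-type HCT-116 cells were plated overnight, exposed to compounds for 2 h at 37 °C, then given HDAC-Glo class I/II luminogenic reagent for 30 min at room temperature before luminescence was read.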
# [2] = qHTS assay to identify small molecule agonists of the sonic hedgehog signaling (Shh) pathway - cell viability counter screen (AID 1259366); further: nearly all actives have a fitted effect of over 50% in size
# Procedure, shortened: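 Cells are plated at 2,000 per well and left 4hr at 37C, 5% CO2 before compound addition. After 23hr of treatment, CellTiter-Fluor reagent is added for 1hr at 37C and fluorescence is measured.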
# [3] = biological target: Estrogen receptor beta (Homo sapiens) (UniProt Q92731); experiment: qHTS assay to identify small molecule agonists of the estrogen receptor beta (ER-beta) signaling pathway (AID 1259377; active means well fitted activation curve with a large enough effect in the signal ratio in the repeat runs, not every such curve was filed as active; inconclusive means weak or mixed curves, or effect the other way; the % refers to the signal ratio); settings: ER-beta-UAS-bla HEK293T, beta-lactamase FRET ratio, 16 h; activation: at 92.4 µM (top of the series) unless noted
# UniProt Q92731, sequence (Q92731 whole entry, looked up, the tested form may be a part): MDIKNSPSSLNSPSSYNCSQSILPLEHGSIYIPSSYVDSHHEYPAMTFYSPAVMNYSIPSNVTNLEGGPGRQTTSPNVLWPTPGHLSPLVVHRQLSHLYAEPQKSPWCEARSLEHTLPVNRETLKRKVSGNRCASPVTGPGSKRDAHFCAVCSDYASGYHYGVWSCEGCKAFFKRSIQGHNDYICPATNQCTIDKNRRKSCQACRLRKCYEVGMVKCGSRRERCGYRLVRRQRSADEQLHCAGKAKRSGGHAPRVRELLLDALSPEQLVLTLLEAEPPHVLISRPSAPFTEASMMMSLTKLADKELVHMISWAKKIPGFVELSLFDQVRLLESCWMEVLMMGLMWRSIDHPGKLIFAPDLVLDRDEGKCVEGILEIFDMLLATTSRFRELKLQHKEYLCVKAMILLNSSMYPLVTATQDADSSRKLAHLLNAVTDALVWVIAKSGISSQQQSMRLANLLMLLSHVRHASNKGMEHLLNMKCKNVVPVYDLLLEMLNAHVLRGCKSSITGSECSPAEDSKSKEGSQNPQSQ
# Procedure, shortened: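 Agonist mode cell assay in GripTite HEK293T cells expressing an ER-beta fusion that drives beta-lactamase from an Upstream Activator Sequence; 16 hr compound exposure at 37C, then 2 h LiveBLAzer B/G FRET substrate at room temperature, fluorescence read-out.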
# [4] = biological target: Estrogen receptor beta (Homo sapiens) (UniProt Q92731); experiment: qHTS assay to identify small molecule antagonists of the estrogen receptor beta (ER-beta) signaling pathway (AID 1259378; active means well fitted inhibition curve with a large enough effect in the signal ratio in the repeat runs, not every such curve was filed as active; inconclusive means weak or mixed curves, or effect the other way; inactive means no such curve, though single readings can be large or run the other way; the % refers to the signal ratio; on activity, negative = inhibition: on the % scale 0 is the no-effect control and ±100 the full control effect); settings: ER-beta-UAS-bla HEK293T, beta-lactamase FRET ratio, 16 h; activity, negative = inhibition: at 92.4 µM (top of the series) unless noted
# Procedure, shortened: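 ER-beta-UAS-bla HEK293T (GripTite) cells in 2% charcoal-stripped FBS medium were preincubated 6 hr at 37C, dosed with compound, then stimulated with 1 nM E2 (final) for 16 hr; beta-lactamase reporter read by B/G FRET fluorescence after 2 hr substrate loading.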
# [5] = qHTS assay to identify small molecule agonists of the androgen receptor (AR) signaling pathway in the presence of an antagonist - cell viability counter screen (AID 1259379); further: nearly all actives have a fitted effect of over 25% in size
# Procedure, shortened: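 MDA-kb2 human breast carcinoma cells (stable MMTV-luciferase, AR/GR responsive) were seeded 3,000 cells/well, pre-incubated 5 hr at 37C without CO2, then given 3.0uM nilutamide and compounds at 15 concentrations for 16 hr. Viability was read by CellTiter-Fluor fluorescence.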
# [6] = qHTS assay to identify small molecule antagonists of the estrogen receptor beta (ER-beta) signaling pathway - cell viability counter screen (AID 1259382); further: nearly all actives have a fitted effect of over 55% in size
# Procedure, shortened: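 ER-beta-UAS-bla HEK293T cells (2,000/well, 2% charcoal-stripped FBS) were pre-incubated 6 hr at 37C, then given compound plus 1nM final 17-beta-estradiol for 16 hr. Viability was read in the same wells by CellTiter-Glo luminescence after 30 min at room temperature.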
# [7] = qHTS assay to identify small molecule agonists of the estrogen receptor alpha (ER-alpha) signaling pathway in the presence of an antagonist - cell viability counter screen (AID 1259386);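 further: cells exposed to compounds for 22 h at 37 °C before the viability read; nearly all actives have a fitted effect of over 30% in size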
# Procedure, shortened: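 VM7Luc4E2 cells (endogenous full-length ER-alpha, 4×ERE-luciferase) were held 5 days in phenol red-free medium with 10% charcoal-stripped FBS, plated, then given 10.0nM ICI-182,780 and compounds at 15 concentrations for 22hr at 37C; viability read by CellTiter-Fluor fluorescence.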
# [8] = biological target: Progesterone receptor (Homo sapiens) (UniProt P06401); experiment: qHTS assay to identify small molecule agonists of the progesterone receptor (PR) signaling pathway (AID 1346784; calls by dose curve; further: nearly all actives have a fitted effect of over 30% in size; on activation: on the % scale 0 is the no-effect control and ±100 the full control effect); settings: PR-UAS-bla HEK293T, beta-lactamase FRET ratio, 16 h; activation: at 92.4 µM (top of the series) unless noted
# UniProt P06401, sequence (P06401 whole entry, looked up): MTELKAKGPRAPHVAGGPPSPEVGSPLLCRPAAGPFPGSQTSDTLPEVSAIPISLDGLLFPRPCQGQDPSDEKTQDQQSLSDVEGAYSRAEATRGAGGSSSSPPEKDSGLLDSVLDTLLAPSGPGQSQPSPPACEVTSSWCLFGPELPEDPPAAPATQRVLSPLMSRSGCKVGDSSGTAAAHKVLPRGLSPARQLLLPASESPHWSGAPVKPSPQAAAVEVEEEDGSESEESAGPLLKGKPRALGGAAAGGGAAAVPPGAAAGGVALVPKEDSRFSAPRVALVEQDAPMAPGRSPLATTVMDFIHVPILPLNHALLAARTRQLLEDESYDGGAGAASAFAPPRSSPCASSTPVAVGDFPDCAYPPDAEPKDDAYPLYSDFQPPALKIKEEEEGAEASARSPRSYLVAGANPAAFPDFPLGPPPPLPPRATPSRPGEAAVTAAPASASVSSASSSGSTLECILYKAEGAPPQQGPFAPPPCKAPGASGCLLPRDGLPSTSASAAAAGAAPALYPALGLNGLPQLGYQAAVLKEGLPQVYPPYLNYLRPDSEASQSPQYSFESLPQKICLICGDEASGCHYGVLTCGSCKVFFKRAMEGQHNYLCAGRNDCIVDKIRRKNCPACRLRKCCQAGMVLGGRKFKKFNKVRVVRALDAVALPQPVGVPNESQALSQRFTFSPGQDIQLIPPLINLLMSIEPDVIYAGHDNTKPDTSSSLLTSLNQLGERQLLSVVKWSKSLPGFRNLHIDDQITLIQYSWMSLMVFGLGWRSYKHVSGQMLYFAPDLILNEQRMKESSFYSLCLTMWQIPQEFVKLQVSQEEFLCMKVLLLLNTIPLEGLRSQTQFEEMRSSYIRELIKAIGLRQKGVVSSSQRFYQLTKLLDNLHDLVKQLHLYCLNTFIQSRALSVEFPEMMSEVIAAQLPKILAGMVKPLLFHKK
# Procedure, shortened: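 Cells (PR-UAS-bla HEK 293T, GripTite) were plated in assay medium containing 2% charcoal-stripped FBS and incubated 6 hr. Test compounds in DMSO were added for 16 hr at 37C. FRET substrate was then loaded for 2 hr at room temperature before fluorescence reading.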
# [9] = biological target: Progesterone receptor (Homo sapiens) (UniProt P06401); experiment: qHTS assay to identify small molecule antagonists of the progesterone receptor (PR) signaling pathway (AID 1346795; active means well fitted inhibition curve with a large enough effect in the signal ratio in the repeat runs, not every such curve was filed as active; inconclusive means weak or mixed curves; the % refers to the signal ratio); settings: PR-UAS-bla HEK293T, beta-lactamase FRET ratio, 16 h; activity change, negative = inhibition: at 92.4 µM (top of the series) unless noted
# Procedure, shortened: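 Antagonist mode: compounds tested against 1 nM (final) promegestone stimulation in HEK293T cells expressing PR-UAS-bla reporter, 16 hr at 37C, 5% CO2; beta-lactamase activity detected via B/G FRET substrate after 2 hr at room temperature.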
# [10] = qHTS assay to identify small molecule antagonists of the progesterone receptor (PR) signaling pathway - cell viability counter screen (AID 1346798); further: nearly all actives have a fitted effect of over 50% in size
# Procedure, shortened: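 Counter screen for cytotoxicity: viability of PR-UAS-bla HEK293T cells was measured with CellTiter-Glo luminescence following 16 hr compound exposure in the presence of R5020.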
# [11] = qHTS assay to identify small molecule agonists of the progesterone receptor (PR) signaling pathway - cell viability counter screen (AID 1346799; calls by dose curve; further: nearly all actives have a fitted effect of over 45% in size)
# Procedure, shortened: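 Cells (PR-UAS-bla HEK293T) are plated at 3,000/well in 2% charcoal-stripped FBS medium, rested 6 hr, dosed and incubated 16 hr at 37C. CellTiter-Glo is then added and luminescence measured after 30 min at room temperature.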
# [12] = qHTS assay to identify small molecule antagonists of the TGF-beta/Smad signaling pathway - cell viability counter screen (AID 1346824); further: nearly all actives have a fitted effect of over 50% in size
# Procedure, shortened: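 SBE-bla HEK 293T cells were plated overnight at 37 C, then given compounds in DMSO plus TGF-beta1 (added as 0.25 ng/mL solution) for 5 hr. After the bla read, CellTiter-Glo was added to the same wells and luminescence read after 30 min at room temperature.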
# [13] = qHTS assay to identify small molecule agonists of the estrogen receptor beta (ER-beta) signaling pathway - cell viability counter screen (AID 1259380); further: nearly all actives have a fitted effect of over 30% in size
# Procedure, shortened: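 ER-beta-UAS-bla HEK293T cells in medium with 2% charcoal-stripped FBS were preincubated 6 hr at 37C, dosed with compound in DMSO for 16 hr, then after the bla read, CellTiter-Glo was added for 30 min at room temperature; luminescence recorded.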
# [14] = qHTS assay to identify small molecule antagonists of the sonic hedgehog signaling (Shh) pathway (AID 1259369; calls by dose curve; further: nearly all actives have a fitted effect of over 45% in size)
# Procedure, shortened: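 NIH/3T3-derived 3T3Gli1-Luc cells with stably integrated Gli1-Luc reporter were preincubated 4hr at 37 C, then given compounds in DMSO plus Shh conditioned medium and incubated 24hr. Firefly luciferase luminescence read after 30min reagent at room temperature.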
# [15] = biological target: Thyrotropin receptor (Homo sapiens) (UniProt P16473); experiment: qHTS assay to identify small molecule antagonists of the thyroid stimulating hormone receptor (TSHR) signaling pathway (AID 1259385; calls by dose curve; further: nearly all actives have a fitted effect of over 20% in size; on activity change, negative = inhibition: on the % scale 0 is the no-effect control and ±100 the full control effect); settings: TSHR-HEK293 cAMP HTRF, TSH-stimulated antagonist mode; activity change, negative = inhibition: at 92.4 µM (top of the series) unless noted
# UniProt P16473, sequence (P16473 whole entry, looked up): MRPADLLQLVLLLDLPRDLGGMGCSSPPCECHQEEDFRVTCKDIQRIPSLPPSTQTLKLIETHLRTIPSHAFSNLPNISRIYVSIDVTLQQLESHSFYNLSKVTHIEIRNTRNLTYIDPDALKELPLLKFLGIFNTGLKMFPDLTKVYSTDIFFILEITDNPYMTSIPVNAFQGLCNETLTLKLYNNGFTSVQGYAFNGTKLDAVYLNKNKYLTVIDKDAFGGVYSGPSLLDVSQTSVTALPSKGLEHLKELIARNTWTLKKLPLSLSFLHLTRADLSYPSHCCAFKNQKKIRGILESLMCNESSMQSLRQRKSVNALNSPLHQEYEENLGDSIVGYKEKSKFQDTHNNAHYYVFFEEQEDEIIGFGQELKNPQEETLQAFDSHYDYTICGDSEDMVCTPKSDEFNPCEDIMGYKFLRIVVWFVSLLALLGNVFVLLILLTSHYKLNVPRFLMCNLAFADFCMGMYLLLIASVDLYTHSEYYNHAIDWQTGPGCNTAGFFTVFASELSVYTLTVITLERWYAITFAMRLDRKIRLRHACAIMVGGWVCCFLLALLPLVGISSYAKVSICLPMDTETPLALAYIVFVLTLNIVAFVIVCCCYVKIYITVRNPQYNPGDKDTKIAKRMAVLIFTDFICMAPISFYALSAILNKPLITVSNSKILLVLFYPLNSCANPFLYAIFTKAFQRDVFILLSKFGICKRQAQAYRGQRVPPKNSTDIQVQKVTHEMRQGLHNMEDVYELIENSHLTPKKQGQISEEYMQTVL
# Procedure, shortened: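 TSHR-HEK293 cells were plated and held 18 h at 37C/5% CO2, then given compound plus Ro20-1724 and stimulated with TSH at 1.5 ng/mL final. After 30 min at room temperature, cAMP was detected with cAMP-d2/anti-cAMP-cryptate (1 h) by fluorescence.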
# [16] = qHTS assay to identify small molecule antagonists of the sonic hedgehog signaling (Shh) pathway - cell viability counter screen (AID 1259367); further: nearly all actives have a fitted effect of over 55% in size
# Procedure, shortened: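 NIH/3T3-derived Gli1-Luc reporter cells (2,000 per well) rested 4 hr at 37 C, then received DMSO compounds plus conditioned medium. After 23 hr of treatment, CellTiter-Fluor was added for 1 hr at 37C and fluorescence read.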
# [17] = qHTS assay to identify small molecule agonists of the sonic hedgehog signaling (Shh) pathway (AID 1259368; calls by dose curve; further: nearly all actives have a fitted effect of over 15% in size)
# Procedure, shortened: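 NIH/3T3-derived 3T3Gli1-Luc cells carrying a stably integrated Gli1 response element–firefly luciferase reporter were plated, left 4 hr at 37 C, then given compounds in DMSO for 24 hr. Luminescence was read 30 min after adding luciferase reagent.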
# Potency means the concentration at half of the fitted maximal effect; tags describe the fitted curve by direction and shape or compound fluorescence and quenching.
structure (smiles),measurement,setting,value
C[CH2][Hg][N]1C(=O)C2C(C1=O)C1(Cl)C(Cl)=C(Cl)C2(Cl)C1(Cl)Cl (stereo not given),Potency,[1],"inconclusive: 13 µM [inhibitor, partial curve]"
same,Potency,[2],active: 7.3 µM
same,Potency,[3],"inconclusive: 4.61 µM [rising, full curve]"
same,Potency,[4],inconclusive: 9.2 µM [partial curve]
same,Potency,[5],active: 13 µM
same,Potency,[6],active: 11.6 µM
same,Potency,[7],"inconclusive: 16.4 µM [cytotoxic, single point]"
same,Potency,[8],inconclusive: 0.0517 µM [cytotoxic]
same,Potency,[9],"inconclusive: 5.17 µM [rising, partial curve]"
same,Potency,[10],active: 14.6 µM
same,Potency,[11],"inconclusive: 0.058 µM [cytotoxic, full curve, poor fit]"
same,Potency,[12],"inconclusive: 14.7 µM [cytotoxic, single point]"
CC(C)(C)c1cc([N+](=O)[O-])cc([N+](=O)[O-])c1O,Potency,[1],"inconclusive: 54.3 µM [inhibitor, partial curve, poor fit]"
same,Potency,[2],active: 21.6 µM
same,Potency,[4],"inconclusive: 30.5 µM [rising, partial curve, poor fit]"
same,Potency,[13],"inconclusive: 6.84 µM [cytotoxic, full curve]"
same,Potency,[7],active: 19.3 µM
same,Potency,[9],"inconclusive: 54.3 µM [rising, partial curve]"
same,Potency,[10],"inconclusive: 4.84 µM [rising, full curve, poor fit]"
same,Potency,[11],"inconclusive: 2.72 µM [rising, full curve]"
same,Potency,[12],"inconclusive: 1.23 µM [cytotoxic, full curve, poor fit]"
CC(C)Nc1ccc(Nc2ccccc2)cc1,Potency,[1],"inconclusive: 60.9 µM [inhibitor, partial curve] and inconclusive: 54.5 µM [inhibitor]"
same,Potency,[14],"active: 5.43 µM and inconclusive: 12.2 µM [inhibitor, full curve, poor fit]"
same,Potency,[15],"inconclusive: 61.1 µM [falling, partial curve]"
same,"activity change, negative = inhibition",[15],inconclusive: 0.391%
same,Potency,[7],"active: 60.9 µM and inconclusive: 48.6 µM [cytotoxic, partial curve]"
same,Potency,[8],inconclusive: 68.6 µM [cytotoxic]
same,activation,[8],inconclusive: -6.61%
same,Potency,[9],active: 30.5 µM and active: 27.3 µM
same,Potency,[10],"inconclusive: 54.3 µM [cytotoxic, single point] and inconclusive: 68.6 µM [single point]"
O=[N+]([O-])c1cccc2cccc([N+](=O)[O-])c12,Potency,[1],inactive
same,Potency,[14],"inconclusive: 13.7 µM [inhibitor, single point]"
same,"activity, negative = inhibition",[4],inconclusive: -40.1%
same,Potency,[9],active: 27.4 µM
same,Potency,[11],"inconclusive: 5.47 µM [rising, full curve]"
N#Cc1nn(-c2c(Cl)cc(C(F)(F)F)cc2Cl)c(N)c1S(=O)C(F)(F)F (stereo not given),Potency,[1],"inconclusive: 13.3 µM [inhibitor, partial curve, poor fit]"
same,Potency,[2],"inconclusive: 61.5 µM [cytotoxic, single point]"
same,Potency,[16],"inconclusive: 54.8 µM [cytotoxic, single point]"
same,Potency,[3],"inconclusive: 13.3 µM [activator, single point]"
same,Potency,[4],"inconclusive: 9.75 µM [inhibitor, full curve] and active: 23.7 µM"
same,Potency,[11],"inconclusive: 7.5 µM [rising, full curve]"
same,Potency,[12],"inconclusive: 34.9 µM [cytotoxic, partial curve, poor fit]"
Cc1ccc(-c2c(Cl)nc(C#N)n2S(=O)(=O)N(C)C)cc1,Potency,[1],"inconclusive: 34.3 µM [inhibitor, partial curve]"
same,Potency,[2],"inconclusive: 19.3 µM [rising, partial curve]"
same,Potency,[17],"inconclusive: 68.5 µM [activator, single point]"
same,Potency,[3],"inconclusive: 54.4 µM [rising, partial curve]"
same,Potency,[4],"inconclusive: 24.3 µM [rising, partial curve]"
same,Potency,[13],"inconclusive: 30.6 µM [cytotoxic, partial curve]"
same,activation,[8],inconclusive: -22.8%
same,Potency,[9],inconclusive: 6.85 µM [full curve]
same,Potency,[10],active: 8.63 µM
same,Potency,[11],"inconclusive: 4.32 µM [cytotoxic, full curve, poor fit]"
CCOS(=O)(=O)OCC,Potency,[1],inactive
same,Potency,[3],"inconclusive: 77 µM [rising, partial curve, poor fit]"
same,Potency,[13],"inconclusive: 38.6 µM [cytotoxic, partial curve]"
N#CC(C#N)=C(C#N)C#N,Potency,[1],"inconclusive: 32 µM [inhibitor, partial curve]"
same,Potency,[2],"inconclusive: 45.2 µM [cytotoxic, partial curve, poor fit]"
same,Potency,[16],"inconclusive: 28.5 µM [cytotoxic, partial curve, poor fit]"
same,Potency,[15],"inconclusive: 14.3 µM [falling, single point]"
same,Potency,[7],"inconclusive: 45.2 µM [cytotoxic, partial curve]"

# Reference: PubChem BioAssay (Tox21)
